From the supplement of paper PMC6531468
This is one part of the list. Read counts after selection give these values, which scatter widely. Each score is taken over the longer molecules that contain the sequence shown.

These sequences were tested on IMP3 KH1-4 (assay: 6-mer SELEX enrichment z-score vs GST control; IMP3 is the RNA-binding protein IGF2BP3; higher = more enriched by binding). Conditions: construct: KH1-4 (164-579); SELEX round: R4.
Procedure: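 SELEX-seq with GST-tagged IMP3 KH1-4 (Pro164-Lys579) and an N40 RNA pool, round 4. 6-mer z-score of sequence-tag enrichment normalised to the corresponding GST SELEX round; RNA k-mers written as DNA (T for U).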

Chain of IMP3 KH1-4 (chain, as listed by the source): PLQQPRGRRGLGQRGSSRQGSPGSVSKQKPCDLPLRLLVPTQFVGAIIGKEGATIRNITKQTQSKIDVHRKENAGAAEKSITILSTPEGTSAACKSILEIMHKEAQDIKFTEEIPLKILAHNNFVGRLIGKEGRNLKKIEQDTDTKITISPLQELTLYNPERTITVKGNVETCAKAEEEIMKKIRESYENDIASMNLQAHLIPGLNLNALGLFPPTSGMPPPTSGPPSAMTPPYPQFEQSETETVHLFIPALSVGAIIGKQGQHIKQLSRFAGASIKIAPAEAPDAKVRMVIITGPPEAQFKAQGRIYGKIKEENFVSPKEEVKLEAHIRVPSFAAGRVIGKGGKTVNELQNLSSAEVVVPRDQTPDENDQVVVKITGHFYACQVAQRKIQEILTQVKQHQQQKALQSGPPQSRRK

| Sequence | 6-mer SELEX enrichment z-score |
| --- | --- |
| TGACAC | 0.552 |
| ATGGGC | -0.202 |
| TGGCAT | 0.689 |
| GGGTTT | 0.064 |
| ACCCCT | -0.5 |
| CCTGAA | -1.1 |
| TAATCG | -0.095 |
| AAGAAT | 1.15 |
| TCGATC | -0.564 |
| CGAGCT | -1.68 |
| CTCAAC | -1.02 |
| CGAGTT | -0.987 |
| TCATGT | 0.727 |
| TGCGTG | -1.31 |
| GTCATT | 0.515 |
| CGCGTA | -2.73 |
| GCTTGA | -0.564 |
| ACACGG | 1.1 |
| ATCGAA | -1.25 |
| CAACGC | -0.65 |

| Sequence | 6-mer SELEX enrichment z-score |
| --- | --- |
| GGTTCC | -0.425 |
| GTCCCG | -1.01 |
| CAGATA | 1.09 |
| TACAAA | 0.708 |
| AATACT | 0.597 |
| TTCTAG | 0.22 |
| ATAGCC | -0.045 |
| CCGTGG | -0.265 |
| TCCGCA | 0.716 |
| CGTCAG | -0.514 |
| GGGGAC | 0.521 |
| AAGCTT | -0.494 |
| CCCCGG | -0.776 |
| AGTTAG | 0.325 |
| CACGTT | -0.056 |
| GGGAAA | 0.374 |
| GAACAA | 0.366 |
| GTACCA | -0.929 |
| TCCGGA | 0.048 |
| CCAATT | 0.059 |

Each sequence was assayed against IMP3 full-length (UniProt O00425) in the same assay as above. Conditions: construct: FL IMP3 (1-579); SELEX round: R4.
Chain of UniProt O00425 (O00425 whole entry): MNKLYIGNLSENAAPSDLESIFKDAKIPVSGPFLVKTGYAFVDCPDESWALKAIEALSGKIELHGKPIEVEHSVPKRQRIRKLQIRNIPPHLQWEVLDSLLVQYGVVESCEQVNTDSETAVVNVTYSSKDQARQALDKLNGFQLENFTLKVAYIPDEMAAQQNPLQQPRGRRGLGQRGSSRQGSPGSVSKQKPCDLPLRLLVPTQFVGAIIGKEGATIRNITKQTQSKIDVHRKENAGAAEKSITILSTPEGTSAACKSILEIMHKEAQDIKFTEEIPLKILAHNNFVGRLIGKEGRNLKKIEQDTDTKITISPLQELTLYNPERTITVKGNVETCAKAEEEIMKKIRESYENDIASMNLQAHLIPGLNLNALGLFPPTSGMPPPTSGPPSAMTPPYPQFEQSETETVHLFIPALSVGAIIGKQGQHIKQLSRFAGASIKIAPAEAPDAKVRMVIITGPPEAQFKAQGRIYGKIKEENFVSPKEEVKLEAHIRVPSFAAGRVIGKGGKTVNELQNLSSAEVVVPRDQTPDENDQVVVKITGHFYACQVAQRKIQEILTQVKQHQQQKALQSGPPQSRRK
Procedure: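 SELEX-seq with GST-tagged full-length IMP3 and an N40 RNA pool, round 4. Each 6-mer is scored as an enrichment z-score of sequence tags containing it, normalised to the matching GST SELEX round. RNA written as DNA (T = U).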

| Sequence | 6-mer SELEX enrichment z-score |
| --- | --- |
| TGACAC | 0.244 |
| ATGGGC | 0.338 |
| TGGCAT | 1.33 |
| GGGTTT | 0.187 |
| ACCCCT | -0.821 |
| CCTGAA | -1.48 |
| TAATCG | -0.287 |
| AAGAAT | -0.68 |
| TCGATC | 0.036 |
| CGAGCT | -0.322 |
| CTCAAC | -0.24 |
| CGAGTT | -0.473 |
| TCATGT | 0.953 |
| TGCGTG | -0.958 |
| GTCATT | 0.716 |
| CGCGTA | -1.36 |
| GCTTGA | -0.367 |
| ACACGG | 1.9 |
| ATCGAA | -1.01 |
| CAACGC | 0.079 |

| Sequence | 6-mer SELEX enrichment z-score |
| --- | --- |
| GGTTCC | -0.069 |
| GTCCCG | -0.067 |
| CAGATA | 0.616 |
| TACAAA | 0.167 |
| AATACT | -0.429 |
| TTCTAG | 0.02 |
| ATAGCC | -0.195 |
| CCGTGG | 0.037 |
| TCCGCA | 0.803 |
| CGTCAG | 0.375 |
| GGGGAC | 0.214 |
| AAGCTT | -0.511 |
| CCCCGG | -0.027 |
| AGTTAG | 0.026 |
| CACGTT | 0.151 |
| GGGAAA | -0.416 |
| GAACAA | -0.052 |
| GTACCA | -0.111 |
| TCCGGA | -0.15 |
| CCAATT | -0.418 |

Each sequence was assayed on IMP3 KH1-2 in the same assay as above. Conditions: construct: KH1-2 (164-376); SELEX round: R4.
Chain of IMP3 KH1-2 (chain, as listed by the source): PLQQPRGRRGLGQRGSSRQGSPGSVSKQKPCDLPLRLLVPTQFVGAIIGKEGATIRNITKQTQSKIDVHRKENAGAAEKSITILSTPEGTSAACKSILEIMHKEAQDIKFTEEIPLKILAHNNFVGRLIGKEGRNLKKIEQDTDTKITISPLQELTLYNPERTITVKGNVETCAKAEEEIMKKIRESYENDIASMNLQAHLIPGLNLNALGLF
Procedure: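 SELEX-seq with GST-tagged IMP3 KH1-2 (Pro164-Phe376) and an N40 RNA pool, round 4 (stringent 300/600 mM KCl washes). 6-mer z-score of sequence-tag enrichment normalised to the corresponding GST SELEX round; RNA k-mers written as DNA (T for U).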

| Sequence | 6-mer SELEX enrichment z-score |
| --- | --- |
| TGACAC | 0.355 |
| ATGGGC | -0.174 |
| TGGCAT | 0.482 |
| GGGTTT | 0.196 |
| ACCCCT | -0.492 |
| CCTGAA | -1.14 |
| TAATCG | -0.237 |
| AAGAAT | 0.799 |
| TCGATC | -0.525 |
| CGAGCT | -1.48 |
| CTCAAC | -0.793 |
| CGAGTT | -0.815 |
| TCATGT | 0.481 |
| TGCGTG | -1.25 |
| GTCATT | 0.361 |
| CGCGTA | -2.4 |
| GCTTGA | -0.49 |
| ACACGG | 0.68 |
| ATCGAA | -1.39 |
| CAACGC | -0.597 |

| Sequence | 6-mer SELEX enrichment z-score |
| --- | --- |
| GGTTCC | -0.307 |
| GTCCCG | -0.836 |
| CAGATA | 1.14 |
| TACAAA | 1.06 |
| AATACT | 0.762 |
| TTCTAG | 0.165 |
| ATAGCC | -0.035 |
| CCGTGG | -0.18 |
| TCCGCA | 0.847 |
| CGTCAG | -0.434 |
| GGGGAC | 0.882 |
| AAGCTT | -0.431 |
| CCCCGG | -0.357 |
| AGTTAG | 0.195 |
| CACGTT | -0.211 |
| GGGAAA | 0.413 |
| GAACAA | 0.542 |
| GTACCA | -1.01 |
| TCCGGA | 0.036 |
| CCAATT | -0.027 |

Each sequence was assayed on IMP3 KH3-4 in the same assay as above. Conditions: construct: KH3-4 (377-579); SELEX round: R4.
Chain of IMP3 KH3-4 (chain, as listed by the source): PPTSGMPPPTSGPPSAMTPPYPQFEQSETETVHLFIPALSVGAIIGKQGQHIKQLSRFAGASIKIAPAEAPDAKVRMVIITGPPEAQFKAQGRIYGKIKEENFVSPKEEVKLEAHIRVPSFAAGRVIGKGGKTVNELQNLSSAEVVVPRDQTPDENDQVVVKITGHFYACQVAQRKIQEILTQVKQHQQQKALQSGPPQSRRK
Procedure: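 SELEX-seq with GST-tagged IMP3 KH3-4 (Pro377-Lys579) and an N40 RNA pool, round 4. 6-mer z-score of sequence-tag enrichment normalised to the corresponding GST SELEX round; RNA k-mers written as DNA (T for U).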

| Sequence | 6-mer SELEX enrichment z-score |
| --- | --- |
| TGACAC | 0.069 |
| ATGGGC | 0.274 |
| TGGCAT | 0.592 |
| GGGTTT | 0.397 |
| ACCCCT | -1.09 |
| CCTGAA | -1.34 |
| TAATCG | -0.042 |
| AAGAAT | 2.17 |
| TCGATC | -0.543 |
| CGAGCT | -1.34 |
| CTCAAC | -1.28 |
| CGAGTT | -0.684 |
| TCATGT | 0.572 |
| TGCGTG | -0.955 |
| GTCATT | 0.541 |
| CGCGTA | -2.42 |
| GCTTGA | -0.317 |
| ACACGG | 0.638 |
| ATCGAA | -1.23 |
| CAACGC | -1.17 |

| Sequence | 6-mer SELEX enrichment z-score |
| --- | --- |
| GGTTCC | -0.332 |
| GTCCCG | -0.985 |
| CAGATA | 1.24 |
| TACAAA | 1.05 |
| AATACT | 0.883 |
| TTCTAG | 0.302 |
| ATAGCC | -0.099 |
| CCGTGG | -0.424 |
| TCCGCA | -0.035 |
| CGTCAG | -0.446 |
| GGGGAC | 0.527 |
| AAGCTT | -0.303 |
| CCCCGG | -1.1 |
| AGTTAG | 0.289 |
| CACGTT | -0.232 |
| GGGAAA | 0.726 |
| GAACAA | 0.759 |
| GTACCA | -1.27 |
| TCCGGA | -0.102 |
| CCAATT | -0.235 |
